According to publication PMC5439695 (PLoS ONE, 2017):

System: mitochondrial membrane potential (MMP)
Conditions: not given

Molecule	disrupt MMP
tetrabutyltin	5.31 log10(M)*-1

Same assay, conditions: POD potency

Molecule	disrupt MMP
CCCCCCCCCCCCn1cc[n+](C)c1.F[B-](F)(F)F	4.78 log10(M)*-1
CCCCCCCCCCCCn1cc[n+](C)c1.O=S(=O)([O-])C(F)(F)F	4.74 log10(M)*-1
CCCCCCCCCCCCCCCC[N+](C)(C)C.[Cl-]	4.86 log10(M)*-1
CCCCCCCCCCCCCCCCn1cc[n+](C)c1.F[B-](F)(F)F	4.74 log10(M)*-1
CCCCCCCCCCCCCC[n+]1ccn(C)c1.[Cl-]	4.92 log10(M)*-1
CCCCCCCCCCCCCC[N+](C)(C)C.[Cl-]	4.82 log10(M)*-1
CCCCCCCCCCCCCC[P+](CCCC)(CCCC)CCCC.CCCCCCCCCCCCc1ccc(S(=O)(=O)[O-])cc1	6.13 log10(M)*-1
CCCCCCCCCCCCCC[P+](CCCCCC)(CCCCCC)CCCCCC.N#C[N-]C#N	6.59 log10(M)*-1
N=C1NC(=N)c2cc3ccccc3cc21 [1,3-Diiminobenz(f)isoindoline]	4.99 log10(M)*-1
CCCC[n+]1ccc(C)cc1.[Cl-] [1-Butyl-4-methylpyridinium chloride]	5.89 log10(M)*-1
CCCCCCCCCCCCn1cc[n+](C)c1.[Cl-] [1-Dodecyl-3-methylimidazolium chloride]	5.19 log10(M)*-1
OCC(c1ccc(Cl)cc1)c1ccc(Cl)cc1 [2,2-Bis(4-chlorophenyl)ethanol]	4.56 log10(M)*-1
CCCCC(CC)COC(=O)c1ccc(O)cc1 (stereo not drawn) [2-Ethylhexylparaben]	5.25 log10(M)*-1
Cl.Cl.Nc1ccc(-c2ccc(N)c(Cl)c2)cc1Cl [3,3'-Dichlorobenzidine dihydrochloride]	4.54 log10(M)*-1
CCCCNC(=O)OCC#CI [3-Iodo-2-propynyl-N-butylcarbamate]	5.26 log10(M)*-1
O=[N+]([O-])C1(Br)COCOC1 [5-Bromo-5-nitro-1,3-dioxane]	4.24 log10(M)*-1
CC(C)c1cccc(C(C)C)c1N1C(=O)c2ccc(O)cc2C1=O [5HPP-33]	5.64 log10(M)*-1
CC/C(=C(\c1ccc(O)cc1)c1ccc(OCCN(C)C)cc1)c1ccccc1 [(Z)-4-Hydroxytamoxifen]	4.57 log10(M)*-1
CC=O [Acetaldehyde]	4.78 log10(M)*-1
C=C(c1ccc(C(=O)O)cc1)c1cc2c(cc1C)C(C)(C)CCC2(C)C [Bexarotene]	4.75 log10(M)*-1
CN[C@H]1CC[C@@H](c2ccc(Cl)c(Cl)c2)c2ccc(S(N)(=O)=O)cc21 [UK-373911]	5.17 log10(M)*-1
C.I. Solvent Black 5	4.82 log10(M)*-1
Dodecylphenol	5.57 log10(M)*-1
